Source: publication PMC11995724, “Antibiotic target discovery by integrated phenotypic and activity-based profiling of electrophilic fragments” (Cell chemical biology, 2025)
The campaign covered roughly 3,200 compounds. About 110 (3.4%) showed an effect of 50% or more. The list shows a part of the results.

Tested on: T1, V. cholerae SAD30
T1 construct: SAD30
Parameters: species or system S. aureus MSSA476 (TSB) or V. cholerae SAD30 (LB); 384-well bacterial growth screen at 25 uM, OD600 relative to DMSO control
Conditions: relative growth, OD600, LB; 25 µM; inhibitor

SMILES | % of control remaining [%]
C=CC(=O)NC(C)c1nnnn1C1CC1 (stereo not drawn) [1-M09, N-[1-(1-cyclopropyl-1H-1,2,3,4-tetrazol-5-yl)ethyl]prop-2-enamide] | 89.2377
CC(Cl)C(=O)N1CCCC1c1nccc(C(F)(F)F)n1 (stereo not drawn) [7-B11, 2-chloro-1-{2-[4-(trifluoromethyl)pyrimidin-2-yl]pyrrolidin-1-yl}propan-1-one] | 86.7008
COc1ccc(C=C(C#N)C(=O)Nc2ccc(C)c(C)c2)cc1 [8-I05, 2-cyano-N-(3,4-dimethylphenyl)-3-(4-methoxyphenyl)prop-2-enamide] | 78.1101
CC(Cl)C(=O)N1CCN(c2oc(-c3ccco3)nc2C#N)CC1 (stereo not drawn) [7-D13, 5-[4-(2-chloropropanoyl)piperazin-1-yl]-2-(furan-2-yl)-1,3-oxazole-4-carbonitrile] | 76.1275
C=CC(=O)NCc1ccc2oc(=O)[nH]c2c1 [3-D14, N-[(2-oxo-2,3-dihydro-1,3-benzoxazol-5-yl)methyl]prop-2-enamide] | 95.9713
C=CC(=O)N1CCN(S(=O)(=O)Cc2ccon2)CC1 [1-J07, 1-{4-[(1,2-oxazol-3-yl)methanesulfonyl]piperazin-1-yl}prop-2-en-1-one] | 89.2377
CC(=O)Nc1ccc(C(=O)C(C)Cl)cc1 (stereo not drawn) [10-K06, N-[4-(2-chloropropanoyl)phenyl]acetamide] | 99.1233
Cc1nnsc1CNC(=O)C(C)Cl (stereo not drawn) [7-M07, 2-chloro-N-[(4-methyl-1,2,3-thiadiazol-5-yl)methyl]propanamide] | 79.9604
C=CC(=O)N1CCCC2(CCCOC2)C1 (stereo not drawn) [3-E11, 1-{2-oxa-8-azaspiro[5.5]undecan-8-yl}prop-2-en-1-one] | 99.6765
CC(Cl)C(=O)Nc1cccc(Cl)c1Cl (stereo not drawn) [4-L13, 2-chloro-N-(2,3-dichlorophenyl)propanamide] | 92.8186
Cc1ccc(C=C(C#N)C(=O)NC(C)C)s1 [9-O11, 2-cyano-3-(5-methylthiophen-2-yl)-N-(propan-2-yl)prop-2-enamide] | 91.0265
CCc1ccc(CNC(=O)CCl)s1 [6-K05, 2-chloro-N-[(5-ethylthiophen-2-yl)methyl]acetamide] | 95.4024
COc1ccc(NC(=O)CCl)cc1S(=O)(=O)N1CCOCC1 [4-D15, 2-chloro-N-[4-methoxy-3-(morpholine-4-sulfonyl)phenyl]acetamide] | 104.205
O=C(CCl)Nc1nc(-c2ccccc2)cs1 [4-L04, 2-chloro-N-(4-phenyl-1,3-thiazol-2-yl)acetamide] | 106.793
N#CC(=Cc1c(F)cccc1F)C(=O)Nc1ccccc1F [9-J12, 2-cyano-3-(2,6-difluorophenyl)-N-(2-fluorophenyl)prop-2-enamide] | 94.2896
C=CC(=O)NCCNC(=O)[C@@]12CC[C@@](C)(C(=O)O1)C2(C)C [2-J18, N-(2-{[(1S,4R)-4,7,7-trimethyl-3-oxo-2-oxabicyclo[2.2.1]heptan-1-yl]formamido}ethyl)prop-2-enamide] | 90.1959
Cc1ccc(C=C(C#N)C(=O)Nc2ccccc2C(=O)O)s1 [9-K08, 2-[2-cyano-3-(5-methylthiophen-2-yl)prop-2-enamido]benzoic acid] | 78.9259
N#CC(=Cc1ccc2ccccc2c1)C(=O)NC(N)=O [9-K10, {2-cyano-2-[(naphthalen-2-yl)methylidene]acetyl}urea] | 87.0836
C=CC(=O)N1CC(C)(C)c2cc(Cl)ccc21 [1-L14, 1-(5-chloro-3,3-dimethyl-2,3-dihydro-1H-indol-1-yl)prop-2-en-1-one] | 100.098
O=C(c1cc(=O)[nH]c2ccc([N+](=O)[O-])cc12)N1CCSSCC1 [10-B11, 4-(1,2,5-dithiazepane-5-carbonyl)-6-nitro-1,2-dihydroquinolin-2-one] | 100.682
O=C(CCl)NCCCc1ccccc1 [4-N04, 2-chloro-N-(3-phenylpropyl)acetamide] | 112.487
CC(Cl)C(=O)NC1(c2nnc[nH]2)CCC1 (stereo not drawn) [6-F21, 2-chloro-N-[1-(4H-1,2,4-triazol-3-yl)cyclobutyl]propanamide] | 98.7392
C=CC(=O)N1CCC(C(=O)NCCc2cc[nH]n2)CC1 [3-E07, 1-(prop-2-enoyl)-N-[2-(1H-pyrazol-3-yl)ethyl]piperidine-4-carboxamide] | 104.793
C=CC(=O)NC1CCOc2c(F)cccc21 (stereo not drawn) [1-D05, N-(8-fluoro-3,4-dihydro-2H-1-benzopyran-4-yl)prop-2-enamide] | 90.4335
C=CC(=O)Nc1ccc(O)c(C(=O)O)c1 [1-G06, 2-hydroxy-5-(prop-2-enamido)benzoic acid] | 95.2167
Cc1ccc(C=C(C#N)C(=O)Nc2cccc3ncccc23)cc1 [9-J05, 2-cyano-3-(4-methylphenyl)-N-(quinolin-5-yl)prop-2-enamide] | 92.5221
O=C(CCl)N1CCCCc2ccc([N+](=O)[O-])cc21 [5-I18, 2-chloro-1-(8-nitro-2,3,4,5-tetrahydro-1H-1-benzazepin-1-yl)ethan-1-one] | 94.3154
C=CC(=O)N1CCC(C(=O)N2CCCC(C3OCCO3)C2)CC1 (stereo not drawn) [2-L16, 1-{4-[3-(1,3-dioxolan-2-yl)piperidine-1-carbonyl]piperidin-1-yl}prop-2-en-1-one] | 95.4453
C[C@@H](NC(=O)CCl)c1ccccc1 [6-O20, 2-chloro-N-[(1R)-1-phenylethyl]acetamide] | 94.0373
O=C(CCl)c1c[nH]c2ccccc12 [10-B05, 2-chloro-1-(1H-indol-3-yl)ethan-1-one] | 108.475
